Experimental data: PMC4336329 (PLoS ONE, 2015)
The whole screen tested about 310,000 compounds, of which about 14,000 (4.5%) showed an effect of 50% or more. The effect is printed as a negative number. Some of the results follow.

These molecules were tested against human ether-à-go-go-related gene (hERG) potassium channel (human, UniProt Q12809) (assay: primary screen, population patch clamp on CHO cells stably expressing hERG).
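Note: peak tail current of the secondary pulse compared with the same well before compound.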

Sequence of human ether-à-go-go-related gene (hERG) potassium channel (Q12809 whole entry, looked up): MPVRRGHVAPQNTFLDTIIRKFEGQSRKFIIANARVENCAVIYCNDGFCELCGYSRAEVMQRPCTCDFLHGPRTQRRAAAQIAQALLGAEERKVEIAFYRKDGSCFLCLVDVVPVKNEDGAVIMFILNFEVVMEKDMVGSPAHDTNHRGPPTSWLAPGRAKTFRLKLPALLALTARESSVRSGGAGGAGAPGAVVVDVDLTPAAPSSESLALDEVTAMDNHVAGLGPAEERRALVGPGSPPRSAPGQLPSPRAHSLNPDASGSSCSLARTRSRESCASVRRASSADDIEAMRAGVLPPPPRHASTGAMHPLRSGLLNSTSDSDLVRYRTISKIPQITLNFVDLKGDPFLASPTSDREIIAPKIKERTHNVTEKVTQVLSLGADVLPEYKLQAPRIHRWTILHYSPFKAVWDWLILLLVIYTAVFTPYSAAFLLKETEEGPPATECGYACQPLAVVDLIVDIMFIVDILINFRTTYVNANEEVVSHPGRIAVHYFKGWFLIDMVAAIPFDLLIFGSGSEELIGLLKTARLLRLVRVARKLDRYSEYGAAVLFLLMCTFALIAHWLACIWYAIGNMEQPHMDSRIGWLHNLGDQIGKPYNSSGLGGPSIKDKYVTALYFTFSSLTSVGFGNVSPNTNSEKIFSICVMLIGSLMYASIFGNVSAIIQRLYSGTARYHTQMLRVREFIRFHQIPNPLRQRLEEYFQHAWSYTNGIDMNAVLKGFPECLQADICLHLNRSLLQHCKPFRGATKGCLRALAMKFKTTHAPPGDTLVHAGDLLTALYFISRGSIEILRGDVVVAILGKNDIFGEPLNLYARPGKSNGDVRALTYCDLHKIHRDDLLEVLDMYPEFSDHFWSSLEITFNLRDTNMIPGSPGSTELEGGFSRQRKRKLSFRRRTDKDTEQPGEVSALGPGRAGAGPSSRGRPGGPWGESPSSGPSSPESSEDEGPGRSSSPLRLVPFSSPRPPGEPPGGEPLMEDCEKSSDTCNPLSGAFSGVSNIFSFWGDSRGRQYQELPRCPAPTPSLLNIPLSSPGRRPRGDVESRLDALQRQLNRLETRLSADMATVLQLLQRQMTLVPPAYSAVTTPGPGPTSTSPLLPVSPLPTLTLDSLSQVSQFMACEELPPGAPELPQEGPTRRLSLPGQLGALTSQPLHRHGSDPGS

Row | Structure (SMILES) | hERG current change (%, negative = inhibition) at 10uM [%]
1 | CN(C)c1cccc(C(=O)NNC(=S)NC2CCCC2)c1 | 20.5
2 | COc1ccc(-c2nc(C)c(C(C)=O)n2O)cc1OC | -1.15
3 | Cn1c(=O)c2c(nc(Br)n2CCSc2nnnn2-c2ccccc2)n(C)c1=O | -25.2
4 | Cc1nc(N)nc2c1CCCC2 | 13.9
5 | CCOc1ccc(S(=O)(=O)Nc2ccc(OC)nc2)cc1 | 17.3
6 | COC(=O)Nc1snnc1C | 0.262
7 | COc1ccc(CN2CCNC(=O)C2CC(=O)N(C)C2CCOCC2)c(F)c1 (centres unmarked) | 10.6
8 | O=C(OCC(=O)N1CCOCC1)c1ccccc1O | 24.6
9 | COc1cc(C(=O)OCC(=O)NC2CCCC2)cc(NC(=O)c2ccco2)c1OC | -11.7
10 | CCCc1cc2c(cc1NC(=O)c1ccc(C(C)(C)C)cc1)OCO2 | -13.8
11 | O=C(c1cccc(N2CCCC2=O)c1)N1CCC2(CC1)OCCO2 | 8.83
12 | Cc1ccc(N(Cc2ccc(C(=O)NC3CCCCC3)cc2)S(C)(=O)=O)cc1C | -3.26
13 | Cn1c(=O)c2c(nc(N3CCc4ccccc4C3)n2C)n(C)c1=O | 7.62
14 | CCC(=O)NCCc1nc2cc(NC(=O)c3ccc(OC)cc3)ccc2n1C | 10.5
15 | CC(C)(C)SC(=O)CC1NS(=O)(=O)OCC1NC(=O)OCC(Cl)(Cl)Cl (centres unmarked) | 16.5
16 | COc1ccc(C2c3ccc4ccccc4c3Oc3ncn(CCO)c(=N)c32)cc1OC (centres unmarked) | -45.7
17 | CN(CC/C=C1/c2ccccc2CSc2ccccc21)CCCO.Cl | -30.8
18 | Cn1c(=O)[nH]c(=O)c2c1nc(Br)n2Cc1cccc(Br)c1 | 15.1
19 | Cc1ccc(CSc2nnc(SCC(=O)N/N=C/C=C/c3ccco3)s2)cc1 | -8.19
20 | CC(CN(C)Cc1ccccc1)OC(=O)c1cccs1.Cl (centres unmarked) | -10.5

Row | Structure (SMILES) | hERG current change (%, negative = inhibition) at 10uM [%]
21 | O=C1CC(N2CCOCC2)C(=O)N1Cc1ccc(N2CCCC2=O)cc1 (centres unmarked) | 3.46
22 | COc1cccc(-c2nc(CS(=O)CC(=O)NCCc3ccccc3)c(C)o2)c1 (centres unmarked) | -21
23 | CSc1nc2nc(C)c(C/C=C/c3ccccc3)c(=O)n2[nH]1 | 10.2
24 | Cc1cc2nc(CS(=O)(=O)c3ccccc3)cc(=O)n2[nH]1 | 18.1
25 | Cc1cccc(/N=C/c2c(O)c3ccccc3oc2=O)n1 | 13.4
26 | O=C(c1cccs1)N1C(=O)c2cccc3cccc1c23 | 11.7
27 | CNC(=O)CCC(=O)Nc1ccc(C(=O)OC)cc1 | 7.77
28 | O=C1CCCC(=O)N1c1ccc(NCCOCCO)c([N+](=O)[O-])c1 | 24
29 | Cc1ccccc1OCC(=O)Nc1ccc2c(c1)n(C)c(=O)n2C | -6.39
30 | NC(=O)c1c(NC(=O)CSc2nnc(-c3ccco3)n2N)sc2c1CCCC2 | 9.02
31 | NS(=O)(=O)c1cnccc1Oc1cccc(Cl)c1 | 13.6
32 | O=C(CCCC(=O)Nc1ccc(Br)cc1)N/N=C/c1ccccc1 | 7.69
33 | O=C(Nc1ccc(-c2nc3ccccc3[nH]2)cc1)c1cccc(N2C(=O)CCC2=O)c1 | 0.66
34 | O=C(NCCN1CCN(C(=O)C(c2ccccc2)c2ccccc2)CC1)C(=O)Nc1ccccc1 | -19.4
35 | CC(Sc1nc(-c2ccccc2)cc(C(F)(F)F)n1)C(=O)NCc1ccco1 (centres unmarked) | 10.2
36 | COc1ccccc1CC(=O)Nc1cccc(C(=O)NN2C(=O)c3ccccc3C2=O)c1 | -1.2
37 | Cc1ccc(S(=O)(=O)Cc2csc(N)n2)cc1 | 18.9
38 | CC1=CC(C)C2C(=O)N(c3ccccc3)NC(=O)C2C1 (centres unmarked) | 9.96
39 | CCNS(=O)(=O)c1cccc(C(=O)c2c(C)cc3ccccn23)c1 | 3.98
40 | COC(=O)c1ccccc1NC(=O)C/C(C)=N/NC(=O)Cc1ccc(Cl)cc1 | 14.1

Row | Structure (SMILES) | hERG current change (%, negative = inhibition) at 10uM [%]
41 | CC(C)NCC(O)COCCOc1ccc(Br)cc1.Cl (centres unmarked) | -12.3
42 | CN1CCN(/N=C/c2c(O)n(C)c(=O)n(C)c2=O)CC1 | 7.99
43 | Cc1csc(NC(=O)CSc2nnnn2C)n1 | 9.26
44 | Cc1ccccc1Cn1cc(C)c(=O)[nH]c1=O | -1.13
45 | C=CCNC(=O)c1cc2c(=O)c3ccccc3oc2nc1C | -31.1
46 | COC(=O)C1CN(C(=O)c2ccc(OC(F)F)cc2)c2ccccc2O1 (centres unmarked) | -27.5
47 | Cc1noc(C)c1C(=O)OCC(=O)/C=C1\N(C)c2ccccc2C1(C)C | -0.0577
48 | CC(=O)Nc1ccc(Nc2nnc(-c3ccc(O)cc3)c3ccccc23)cc1 | 10.2
49 | COc1ccc(C(=O)N2CCCC(c3ccccc3)C2)cc1 (centres unmarked) | 7.04
50 | CCOc1ccccc1N(CC)C(=O)Cn1ncc2c(=O)oc3ccccc3c21 | -26.1
51 | CC(C)(C)NCC(O)COc1cccc2[nH]c(=O)[nH]c12.Cl (centres unmarked) | 7.11
52 | CC1=NN(c2ccc(C(F)(F)F)cn2)C(=O)C1 | 12.7
53 | CCC(=NCCCn1ccnc1)c1c(O)n(-c2ccc(OC)cc2)c(=O)[nH]c1=O | 4.28
54 | COc1cc(C(=O)NCc2nnc(SCC(=O)Nc3nc4ccccc4s3)o2)cc(OC)c1OC | 12
55 | O=C(NC(=S)Nc1ccccc1F)c1ccc(Br)o1 | 8.98
56 | CC(=O)N(c1ccc(C)cc1)c1nc(C)cc(C)c1C#N | 4.48
57 | C/C(=N\NC(=O)CC#N)c1ccc(Oc2ccccc2)cc1 | -5.66
58 | O=C(CSc1nnc(-c2ccccc2F)o1)Nc1ccc(N2CCOCC2)cc1 | 9.55
59 | O=C(Nc1ccccc1O)c1ccc([N+](=O)[O-])cc1 | -0.166
